{
  "source": "PubChem BioAssay (NCATS)",
  "key": {"[1]": {"test": "Primary redox qHTS assay for identification of artifact compounds. (AID 1845223)", "method_in_brief": "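Amplex Red (25 uM) and HRP (250 mU/mL) in HBSS, with compounds for 15 min, then 250 uM DTT for 30 min, room temperature, dark. Fluorescence 525/598 nm read; normalized to DMSO and 10 uM DA3003; Hill fit.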"}, "[2]": {"tested_on": "Nanoluciferase (engineered Oplophorus gracilirostris luciferase)", "test": "Primary Nanoluciferase (NLuc) qHTS assay for identification of artifact compounds. (AID 1845222)", "method_in_brief": "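Compounds are pinned into diluted (1:55) conditioned medium of NLuc-expressing S16 cells and held 15 min at room temperature protected from light. Nano-Glo substrate follows, and luminescence is read 5 min later.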"}, "[3]": {"test": "Quantitative High-Throughput drug screen in 47 multiple myeloma cell lines against the NCATS MIPE library collection: FR4_PLB cell viability assay (AID 1918924; note: nearly all actives have a fitted effect of over 35% in size)", "method_in_brief": "(§1)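 Luminescent ATP measurement with CellTiter-Glo gives viability, scaled between DMSO-only wells (100%) and media-only wells (0%). Cells, 500 per well, faced library compounds for 48 hours at 37C.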"}, "[4]": {"test": "Quantitative High-Throughput drug screen in 47 multiple myeloma cell lines against the NCATS MIPE library collection: EJM_DSMZ cell viability assay (AID 1918926)", "method_in_brief": "(§2)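 We plated 500 myeloma cells per well, pinned in MIPE 4.0 compounds, and incubated for 48 hours at 37C. ATP was then quantified with CellTiter-Glo, with DMSO and media-only wells defining 100% and 0%.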"}, "[5]": {"test": "Quantitative High-Throughput drug screen in 47 multiple myeloma cell lines against the NCATS MIPE library collection: AMO1_DSMZ cell viability assay (AID 1918927)", "details": "AMO1 myeloma cells viability, CellTiter-Glo ATP luminescence, 48 h; series mostly up to 45.8 µM", "method_in_brief": "as §2"}, "[6]": {"test": "Quantitative High-Throughput drug screen in 47 multiple myeloma cell lines against the NCATS MIPE library collection: KMM1_JCRB cell viability assay (AID 1918960)", "details": "KMM1 myeloma viability, CellTiter-Glo ATP luminescence, 48 h", "method_in_brief": "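Myeloma cells at 500 per well in 1536-well format treated with MIPE 4.0 library by pin transfer for 48 h at 37C, 5% CO2. Viability from ATP luminescence (CellTiter-Glo), normalized to DMSO (100%) and media-only (0%) wells.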"}, "[7]": {"test": "Quantitative High-Throughput drug screen in 47 multiple myeloma cell lines against the NCATS MIPE library collection: Karpas620_DSMZ cell viability assay (AID 1918959)", "method_in_brief": "as §1"}},
  "note": "The shares of active, inactive and inconclusive entries below differ from those in the screen. For some of these results: Potencies of inconclusive entries are left out as doubtful fits. Calls of active or inactive are those of the source. Calls come from the whole dose curve; as a rule, active = well fitted curve in the direction sought with a large enough effect; inconclusive = small, poorly fitted or top-dose-only effect, or another doubt; inactive = no such curve, though single readings can be large; an effect the other way counts as inactive or inconclusive. Potency is the fitted concentration of half-maximal effect; tags give direction and shape of the fitted curve.",
  "data": [
    {"smiles": "C[C@@H](CN1CCC(n2c(=O)[nH]c3cc(Br)ccc32)CC1)NC(=O)[C@@H]1C[C@H]1c1ccccc1", "values": [
      {"measurement": "Potency", "setting": "[1]", "value": "inconclusive [activator, partial curve, poor fit]"}
    ]},
    {"smiles": "CC12CCC3C(C1)c1c(cc(O)c(C(=O)c4ccccc4)c1OC3(C)C)O2", "note": "(centres undefined)", "values": [
      {"measurement": "Potency", "setting": "[2]", "value": "inactive"}
    ]},
    {"smiles": "N#Cc1ccccc1-c1cc(-c2ccccn2)cn(-c2ccccc2)c1=O", "values": [
      {"measurement": "Potency", "setting": "[2]", "value": "active: 10.7 µM"}
    ]},
    {"smiles": "CN(C)c1cc2c(cc1Sc1nc3c(N)nccc3n1CCNCC(C)(C)C)OCO2", "values": [
      {"measurement": "Potency", "setting": "[1]", "value": "inconclusive [activator, partial curve, poor fit]"}
    ]},
    {"smiles": "Cc1ccc2c(c1)[C@H]1CN(C)CC[C@H]1N2C(=O)CSc1nnnn1-c1ccc(Cl)cc1", "values": [
      {"measurement": "Potency", "setting": "[2]", "value": "inactive"}
    ]},
    {"smiles": "CCCCCCC1C(=O)O[C@H](C)[C@H](NC(=O)c2cccc(NC=O)c2O)C(=O)O[C@@H](C)[C@@H]1OC(=O)CC(C)C", "note": "(some centres undefined)", "values": [
      {"measurement": "Potency", "setting": "[1]", "value": "inconclusive [activator, full curve, poor fit]"}
    ]},
    {"smiles": "COC1CC(OC2CCC3(C=O)C(CCC4C3CCC3(C)C(C5=CC(=O)OC5)CCC43O)C2)OC(C)C1OC1OC(CO)C(O)C(O)C1O", "note": "(centres undefined)", "values": [
      {"measurement": "Potency", "setting": "[1]", "value": "inconclusive [activator, partial curve, poor fit]"}
    ]},
    {"smiles": "CCC1CN2CCc3cc(OC)c(OC)cc3C2CC1CC1=NCCc2cc(O)c(OC)cc21", "note": "(centres undefined)", "values": [
      {"measurement": "Potency", "setting": "[1]", "value": "inconclusive [activator, single point]"}
    ]},
    {"smiles": "CN1CCN(c2ccc([N+](=O)[O-])c3no[n+]([O-])c23)CC1", "values": [
      {"measurement": "Potency", "setting": "[2]", "value": "inconclusive [inhibitor, single point]"},
      {"measurement": "Potency", "setting": "[3]", "value": "active: 20.9 µM"},
      {"measurement": "Potency", "setting": "[4]", "value": "inconclusive [cytotoxic, partial curve]"},
      {"measurement": "Potency", "setting": "[5]", "value": "active: 16.6 µM"},
      {"measurement": "Potency", "setting": "[6]", "value": "active: 20.9 µM"}
    ]},
    {"smiles": "COc1cc(O)c2c(c1)CCC[C@@H](O)[C@H](O)C(=O)/C=C\\C[C@H](C)OC2=O", "values": [
      {"measurement": "Potency", "setting": "[1]", "value": "inconclusive [activator, partial curve]"}
    ]},
    {"smiles": "CC(C)OC(=O)c1ccnc2cc(C(OCCN3CCCCC3)c3ccccc3Cl)sc12", "note": "(centres undefined)", "values": [
      {"measurement": "Potency", "setting": "[2]", "value": "inactive"},
      {"measurement": "Potency", "setting": "[1]", "value": "inconclusive [activator, partial curve, poor fit]"}
    ]},
    {"smiles": "Cc1cccc(NC(=O)N[C@H]2CN(C)c3ccccc3C(c3ccccc3)=N2)c1", "values": [
      {"measurement": "Potency", "setting": "[2]", "value": "inconclusive [inhibitor, single point]"}
    ]},
    {"smiles": "Cc1cc(C(=O)CN2CCCC2)c(C)n1-c1ccc(F)cc1", "values": [
      {"measurement": "Potency", "setting": "[2]", "value": "inactive"}
    ]},
    {"smiles": "c1ccc([C@@H]2C[C@H]2NC2CCNCC2)cc1", "values": [
      {"measurement": "Potency", "setting": "[2]", "value": "inconclusive [inhibitor, partial curve]"}
    ]},
    {"smiles": "COC1=C[C@@H]2[C@@H]3Cc4ccc(OC)c(O)c4[C@]2(CCN3C)CC1=O", "values": [
      {"measurement": "Potency", "setting": "[2]", "value": "inactive"},
      {"measurement": "Potency", "setting": "[3]", "value": "inconclusive [cytotoxic, single point]"},
      {"measurement": "Potency", "setting": "[4]", "value": "inconclusive [cytotoxic, full curve]"},
      {"measurement": "Potency", "setting": "[7]", "value": "active: 20.9 µM"},
      {"measurement": "Potency", "setting": "[6]", "value": "inconclusive [cytotoxic, single point]"}
    ]},
    {"smiles": "COC(=O)C12C(=O)C(C)(O)C(=O)C1(C)C(C)=CC1C34CCC(OC3=O)C(C)(C)C4CCC12C", "note": "(centres undefined)", "values": [
      {"measurement": "Potency", "setting": "[1]", "value": "inactive"}
    ]},
    {"smiles": "CC[C@H]1C2CC3[C@@H]4N(C)c5ccccc5[C@]45C[C@@H]([C@H]2[C@H]5O)N3[C@@H]1O", "values": [
      {"measurement": "Potency", "setting": "[1]", "value": "inactive"}
    ]},
    {"smiles": "CCOC(=O)c1ccnc2cc(C(OCCN3CCCCC3)c3ccccc3Cl)sc12", "note": "(centres undefined)", "values": [
      {"measurement": "Potency", "setting": "[2]", "value": "inactive"}
    ]},
    {"smiles": "COC(=O)[C@]12CCCC(C)(C)C1CCc1cc(C(C)C)c(O)c(O)c12", "note": "(some centres undefined)", "values": [
      {"measurement": "Potency", "setting": "[2]", "value": "active: 18.6 µM"},
      {"measurement": "Potency", "setting": "[1]", "value": "inconclusive [activator, partial curve]"}
    ]},
    {"smiles": "Cc1sc2c(c1C)C(c1ccc(Cl)cc1)=N[C@@H](CC(=O)Nc1ccc(O)cc1)c1nnc(C)n1-2", "values": [
      {"measurement": "Potency", "setting": "[1]", "value": "inconclusive [activator, partial curve, poor fit]"}
    ]},
    {"smiles": "CN1CCC[C@@H]1Cc1c[nH]c2ccc(Nc3ncccc3[N+](=O)[O-])cc12", "values": [
      {"measurement": "Potency", "setting": "[2]", "value": "inconclusive [inhibitor, single point]"}
    ]},
    {"smiles": "COc1cc2c(c(OC)c1OC)-c1ccc(SC)c(=O)cc1[C@@H](NC(C)=O)CC2", "values": [
      {"measurement": "Potency", "setting": "[2]", "value": "active: 19 µM"},
      {"measurement": "Potency", "setting": "[1]", "value": "inconclusive [activator, partial curve, poor fit]"}
    ]},
    {"smiles": "CO[C@H]1[C@H](O)[C@H](O[C@H]2CC[C@]3(C=O)C4CC[C@]5(C)[C@H](C6=CC(=O)OC6)CC[C@]5(O)C4CC[C@@H]3C2)O[C@@H](C)[C@@H]1O", "note": "(some centres undefined)", "values": [
      {"measurement": "Potency", "setting": "[1]", "value": "inconclusive [activator, single point]"}
    ]}
  ]
}
